Laboratory results: PubChem BioAssay AID1671194 (National Center for Advancing Translational Sciences (NCATS), 2021)
Out of some 140,000 compounds screened, about 240 (0.17%) were called active. Inconclusive means that the source gave no clear call. Such entries were picked first, then a sample of the others. Calls come from the whole dose curve; as a rule, active = well fitted inhibition curve with a large enough effect; inconclusive = small, poorly fitted or top-dose-only effect; inactive = no such curve, though single readings can be large or run the other way. Where the call is inconclusive, the potency comes from a doubtful curve fit.

Assay: Primary qHTS assay for inhibitors of alpha-synuclein gene (SNCA) expression; note: nearly all actives have a fitted effect of over 45% in size;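 for activity change, negative = inhibition: plate controls were DMSO cells for no effect and cell-free wells for full effect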
Conditions: HEK-293 SNCA-luciferase knock-in, luminescence, 24 h; activity change, negative = inhibition: at 57.2 µM (top of the series) unless noted
Potency is the fitted concentration of half-maximal effect; tags give direction and shape of the fitted curve.

Row | Structure (SMILES) | activity change, negative = inhibition | Potency
1 | COc1ccc(-c2cnc3[nH]cc(CC(=O)N4CCCC4)c3c2)cc1 | inactive: 9.97% [at 87.6 µM] | 
2 | C=CCc1ccccc1OCc1nc2ccccc2n1CC |  | inconclusive: 0.355 µM [inhibitor, full curve, poor fit]
3 | CC(=O)N(O)CCCCCNC(=O)CCC(=O)N(O)CCCCCNC(=O)CCC(=O)N(O)CCCCCN |  | inconclusive: 0.191 µM [inhibitor, full curve, poor fit]
4 | CC(C)(C)NC(=O)NCc1nnc2n1C(C(=O)NCc1ccccn1)CC2 (stereo unspecified) | inactive: 3.53% | 
5 | O=C(Nc1ccc2c(c1)OCCO2)N1CCC2(CC1)CC(Cc1ccccc1)CCO2 (stereo unspecified) | inactive: 143% | 
6 | Cn1ncc2c(C(=O)NCCCc3ccccc3)cc(-c3ccc(Cl)cc3)nc21 | inactive: -21.9% | 
7 | Cc1cc2c(c(=O)n(-c3ccc(F)cc3)c(=O)n2CC(=O)Nc2ccc(F)cc2)n1C |  | inconclusive: 1.26 µM [inhibitor, full curve, poor fit]
8 | Cc1ccc(CNC(=O)CN(c2cccc(C)c2C)S(=O)(=O)c2ccccc2)cc1 |  | inconclusive: 35.5 µM [inhibitor, single point]
9 | COc1cccc(CNC(=O)c2cc(-c3ccsc3)nc3c2cnn3C)c1 |  | inconclusive: 50.1 µM [inhibitor, partial curve, poor fit]
10 | Cc1cccc(N2CCN(S(=O)(=O)c3cc(Cl)ccc3Cl)CC2)c1C |  | inconclusive: 2.51 µM [inhibitor, single point]
11 | CCOc1ccc(C(=O)Nc2cccc(NC(=O)c3ccc(C(C)(C)C)cc3)c2)cc1Br |  | inconclusive: 35.5 µM [inhibitor, partial curve, poor fit]
12 | O=C(NCc1nnc2n1C(C(=O)O)CC2)c1ccc2c(c1)OC(F)(F)O2 (stereo unspecified) | inactive: -2.15% | 
13 | COCCC(=O)N[C@@H]1CN(S(C)(=O)=O)C[C@H]1CN(C)C |  | inconclusive: 2.51 µM [inhibitor, partial curve, poor fit]
14 | Cc1cc(C)cc(NS(=O)(=O)c2ccc3[nH]cc(C(=O)NC4CCCCC4)c(=O)c3c2)c1 |  | inconclusive: 25.1 µM [inhibitor, partial curve]
15 | O=C(C1CCOC1)N1CC(Oc2cccc(-c3nc(-c4ccccc4)no3)c2)C1 (stereo unspecified) | inactive: 77.4% | 
16 | O=C(O)C1CCc2nnc(C3CCN(C(=O)c4cccc(Cl)c4)CC3)n21 (stereo unspecified) |  | inconclusive: 6.31 µM [inhibitor, partial curve, poor fit]
17 | COCCNc1nc2cc(-c3nc(-c4cccnn4)no3)ccc2n1C |  | inconclusive: 15.8 µM [inhibitor, single point]
18 | O=C(c1ccc2nccn2c1)N1CCC(c2ccccc2F)C1 (stereo unspecified) | inactive: 10.3% | 
19 | Cc1ccc(OCC(=O)Nc2cccc(-c3nc4ccccc4o3)c2C)cc1C |  | inconclusive: 2.82 µM [inhibitor, single point]
20 | COc1ccc2cc(-c3nc(Cl)c4c5c(sc4n3)CC(C)CC5)c(=O)oc2c1 (stereo unspecified) |  | inconclusive: 7.94 µM [inhibitor, single point]
21 | Cc1cc(=O)[nH]c(NCCNc2cc(C3CC(N)C3)nc(N(C)C)n2)n1 (stereo unspecified) |  | inconclusive: 5.62 µM [inhibitor, full curve, poor fit]

Row | Structure (SMILES) | activity change, negative = inhibition | Potency
22 | CCn1c(CN2CCC(C)CC2)nc2cc(NC(=O)COc3ccc(Cl)c(C)c3)ccc21 |  | inconclusive: 11.2 µM [inhibitor, partial curve, poor fit]
23 | O=C(CC(c1ccccc1)c1ccc(Cl)cc1)N1CCOCC1 (stereo unspecified) | inactive: -8.05% | 
24 | COCC(=O)N1CCc2nc(-c3ccccc3)nc(-c3ccc(OC)cc3)c2C1 | inactive: -21.4% | 
25 | Cc1cccc(-c2cccc(CN3CCC(NC(=O)c4ccccc4F)CC3)c2)c1 |  | inconclusive: 39.8 µM [inhibitor, single point]
26 | CCOC(=O)c1c(C)[nH]c(C)c1S(=O)(=O)N1CCCC(C(=O)NCc2ccc(Cl)cc2)C1 (stereo unspecified) |  | inconclusive: 39.8 µM [inhibitor, single point]
27 | COCCN1CC(CO)C2(CCN(Cc3ccc(F)c(F)c3)CC2)C1 (stereo unspecified) |  | inconclusive: 39.8 µM [inhibitor, single point]
28 | COc1cccc(NC(=O)c2ccc(-c3nc(COc4ccccc4)c(C)o3)cc2)c1 |  | inconclusive: 39.8 µM [inhibitor, single point]
29 | CCCCN(CC)C(=O)CSc1c2c(nc3ccc(Cl)cc13)CCCC2 |  | inconclusive: 22.4 µM [inhibitor, single point]
30 | COc1ccc(-c2noc(-c3cccnc3N3CCN(c4ccc(OC)cc4)CC3)n2)cc1 | inactive: 18% | 
31 | CCOc1ccc(NC(=O)c2sc3nc4c(c(-c5ccc(OC)cc5)c3c2N)C(=O)CC(C)(C)C4)cc1 |  | inconclusive: 1.78 µM [inhibitor, full curve, poor fit]
32 | CN(Cc1ccc(F)cc1)c1ccc2ncc(Nc3ccnc(N4CCOCC4)c3)n2n1 |  | inconclusive: 6.31 µM [inhibitor, full curve, poor fit]
33 | CCCNC(=O)[C@@H]1Cc2cn(Cc3cccnc3)c3cccc(c23)[C@H](CC(C)C)N1 |  | inconclusive: 25.1 µM [inhibitor, partial curve]
34 | CC(C)n1cc(CN2CCCC23CCN(c2ccc(C(F)(F)F)cn2)CC3)cn1 | inactive: -10.6% | 
35 | Cc1oc(-c2ccccc2Cl)nc1Cn1c(SCc2cccc(F)c2)nc2cccnc21 |  | inconclusive: 3.16 µM [inhibitor, single point]
36 | CCn1c(=N)n(CCOc2ccc(Br)cc2)c2ccccc21 |  | active: 25.1 µM
37 | NC(=O)[C@@H]1C[C@H](Oc2cccnc2)CN1S(=O)(=O)c1ccc2c(c1)OCCO2 |  | inconclusive: 8.91 µM [inhibitor, single point]
38 | Cc1cn2nc(C(=O)N3CCC(NC(=O)Cc4ccccc4Cl)CC3)cc2c(=O)[nH]1 |  | inconclusive: 3.16 µM [inhibitor, single point]
39 | COCCn1cnc2ccc(-c3ccsc3)nc2c1=O | inactive: 51.2% [at 87.6 µM] | 
40 | CN[C@@H](CC(C)C)C(=O)N[C@H]1CCN2C(=O)c3cc(-c4ccc(OC)cc4OC)ccc3NC(=O)[C@@H]2C1 |  | inconclusive: 8.91 µM [inhibitor, full curve, poor fit]
41 | COc1ccc(CC(=O)NCCc2csc(-c3cccc(C)c3)n2)cc1 |  | inconclusive: 17.8 µM [inhibitor, partial curve, poor fit]
42 | Cc1cccn2c(=O)c(C(=O)NCCc3ccccc3)cnc12 |  | inconclusive: 14.1 µM [inhibitor, single point]

Row | Structure (SMILES) | activity change, negative = inhibition | Potency
43 | COc1ccc(Cn2cc(C(=O)c3ccc(C)c(C)c3)c(=O)c3ccccc32)cc1 |  | inconclusive: 3.16 µM [inhibitor, full curve, poor fit]
44 | CC1=C[C@@H](CNC(=O)c2ccccc2)[C@H](C(C)C)C[C@H]1Cc1nc2ccncc2[nH]1 |  | inconclusive: 2.82 µM [inhibitor, partial curve, poor fit]
45 | COc1ccc(CNCCC(c2ccc3c(c2)OCO3)c2ccccc2OC)cc1 (stereo unspecified) |  | inconclusive: 31.6 µM [inhibitor, single point]
46 | O=C(NCCc1ccncc1)C1CN(S(=O)(=O)c2ccccc2)CC12CCCCC2 (stereo unspecified) |  | inconclusive: 39.8 µM [inhibitor, single point]
47 | COc1ccc(-c2nc(C3CC3)nc3c2CCN(Cc2ccc(C(F)(F)F)cc2)CC3)cc1 |  | inconclusive: 3.16 µM [inhibitor, partial curve, poor fit]
48 | Cc1ccc(S(=O)(=O)c2nnn3c2nc(NCCc2ccccc2)c2sccc23)cc1 |  | inconclusive: 3.16 µM [inhibitor, full curve]
49 | Cc1nc(N2CCC(C(=O)Nc3ccc(F)c(Cl)c3)CC2)cc(C(F)(F)F)n1 |  | inconclusive: 17.8 µM [inhibitor, partial curve, poor fit]
50 | COC(=O)Nc1ccc(-c2nc(N3CCOCC3)c3cnn(C4CCN(Cc5cccnc5)CC4)c3n2)cc1 |  | inconclusive: 27.1 µM [inhibitor, partial curve, poor fit]
51 | Cc1ccc(CNC(=O)c2c[nH]n3c(=O)c(Cc4ccc(Cl)cc4)c(C)nc23)cc1 |  | inconclusive: 3.98 µM [inhibitor, full curve, poor fit]
52 | CSc1ccc(-c2cccc(C(=O)NCC(=O)NC(C)C)c2)cc1 | inactive: 9.21% [at 87.6 µM] | 
53 | COc1cccc(C(=O)N[C@@H]2CN(c3ccccn3)C[C@H]2CN(C)C)c1 | inactive: -22.4% | 
54 | CN1c2cc(C(=O)N3CCN(c4ccc(F)cc4)CC3)ccc2C(=O)N2CCCCCC21 (stereo unspecified) | inactive: -9.13% | 
55 | COc1cccc(NC(=O)NC[C@H]2O[C@@H](CO)[C@@H](O)[C@H]2N(C)CCN(C)C)c1 |  | inconclusive: 39.8 µM [inhibitor, single point]
56 | Cc1ccc(NC(=O)Cn2c(=O)n(Cc3nc(-c4ccccc4)no3)c(=O)c3ccccc32)cc1C |  | inconclusive: 39.8 µM [inhibitor, single point]
57 | C[C@@H]1O[C@@H](O[C@H]2CC[C@@]3(C)[C@H](CC[C@@H]4[C@H]3C[C@@H](O)[C@]3(C)[C@@H](C5=CC(=O)OC5)CC[C@]43O)C2)C[C@H](O)[C@@H]1O[C@H]1C[C@H](O)[C@H](O[C@H]2C[C@H](O)[C@@H](O)[C@@H](C)O2)[C@H](C)O1 (stereo in doubt) |  | inconclusive: 1.24 µM [inhibitor, full curve]
58 | Fc1ccc(-c2ccnc3nc(C4CCCO4)nn23)cc1 (stereo unspecified) | inactive: -2.88% | 
59 | Cn1cc(C(=O)O)c(=O)c2cc(S(=O)(=O)N3CCOCC3)ccc21 |  | inconclusive: 0.251 µM [inhibitor, single point]
60 | COc1ccc(N2CC3CCC(C2)N3CC(C)C)cc1 | inactive: 5.99% [at 87.6 µM] | 
61 | O=C(CCc1ccccc1)NCc1ccc2c(c1)CCN2C(=O)c1ccccc1 |  | inconclusive: 7.08 µM [inhibitor, single point]
